Screen size: about 39,000 compounds; about 220 (0.56%) showed activity. The list shows a part of the results.
System: Escherichia coli K-12 BW25113
Assay: relative growth (OD600 normalised to plate interquartile mean) (fraction); higher = less growth inhibition, active = 0.2 or less
Settings: 50 µM; LB; incubation time: overnight (16-24 h)
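Further: static incubation at 37 °C against the wild-type strain, values averaged over two biological replicates.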

SMILES | relative growth
Cc1ccc(C(=O)N(CCCN)[C@@H](c2nc3cc(Cl)ccc3c(=O)n2Cc2ccccc2)C(C)C)cc1 | inactive: 0.972
CO[C@H]1CN(C)C(=O)c2ccc(NS(=O)(=O)c3cn(C)cn3)cc2OC[C@@H](C)N(CC2CC2)C[C@H]1C | inactive: 0.998
COc1ccccc1O | inactive: 0.929
CCOC(=O)c1cc(C(=O)OCC)n(C)n1 | inactive: 1
C[C@@H]1CN([C@@H](C)CO)C(=O)c2cccc(NS(=O)(=O)c3ccc(Cl)cc3)c2O[C@@H]1CN(C)Cc1ccc(C(F)(F)F)cc1 | inactive: 1.02
C[C@@H]1CCCCO[C@H](CN(C)C(=O)Nc2ccc(C(F)(F)F)cc2)[C@H](C)CN([C@H](C)CO)C(=O)c2cc(NC(=O)Nc3ccc(F)cc3)ccc2O1 | inactive: 0.988
CCOC(=O)CCCCCC(=O)Nc1ccc2c(c1)C(=O)N([C@@H](C)CO)C[C@H](C)[C@H](CN(C)C(=O)Nc1ccc(F)cc1)OCCCC[C@H](C)O2 | inactive: 1.04
C[C@@H]1CCCCO[C@@H](CN(C)Cc2ccc(C(F)(F)F)cc2)[C@@H](C)CN([C@H](C)CO)C(=O)c2cc(NS(=O)(=O)c3cccs3)ccc2O1 | inactive: 0.996
CC(CO)(CO)NC(=O)NC1CCCCC1 | inactive: 0.937
Cc1ccc(S(=O)(=O)Nc2ccc3c(c2)C(=O)N([C@H](C)CO)C[C@H](C)[C@H](CN(C)S(C)(=O)=O)OCCCC[C@@H](C)O3)cc1 | inactive: 1.01
C[C@H](CO)N1C[C@H](C)[C@H](CN(C)C(=O)Nc2ccc3c(c2)OCO3)OCCCC[C@H](C)Oc2ccc(NS(=O)(=O)c3ccc(Cl)cc3)cc2C1=O | inactive: 0.989
Cc1cc(O)c(C(=O)NC(C(=O)NC2C(=O)N3C(C(=O)O)=C(CSc4nnnn4C)CSC23)c2ccc(O)cc2)cn1 (stereo not drawn) | active: 0.0416
C[C@@H]1CN([C@@H](C)CO)C(=O)Cc2cc(NC(=O)CCC(F)(F)F)ccc2O[C@@H]1CN(C)S(=O)(=O)c1cn(C)cn1 | inactive: 0.999
C[C@@H]1CN([C@H](C)CO)C(=O)c2cc(NS(=O)(=O)c3cccs3)ccc2O[C@H]1CN(C)S(=O)(=O)c1cccs1 | inactive: 1.04
C[C@@H]1CN([C@@H](C)CO)C(=O)c2cc(NS(=O)(=O)c3ccc(F)cc3)ccc2O[C@@H](C)CCCCO[C@H]1CN(C)C(=O)Nc1ccccc1 | inactive: 1
O=C(C[C@@H]1CC[C@@H]2[C@H](COC[C@@H](O)CN2S(=O)(=O)c2ccc(F)cc2)O1)N[C@@H]1CCN(Cc2ccccc2)C1 | inactive: 0.986
C[C@H]1CCCCO[C@@H](CN(C)C(=O)Nc2ccc(F)cc2)[C@@H](C)CN([C@@H](C)CO)C(=O)c2cc(NC(=O)c3ccncc3)ccc2O1 | inactive: 0.991
COc1ccc(NC(=O)Nc2ccc3c(c2)C(=O)N([C@@H](C)CO)C[C@H](C)[C@H](CN(C)C(=O)Cc2ccccc2)OCCCC[C@H](C)O3)cc1 | inactive: 1.04
COc1cccc(-c2ccc3c(c2)O[C@@H](CN(C)C(=O)C2CC2)[C@@H](C)CN([C@@H](C)CO)S3(=O)=O)c1 | inactive: 1.01
C[C@@H]1CN([C@H](C)CO)C(=O)c2cc(NC(=O)CCCN(C)C)ccc2O[C@H]1CN(C)C(=O)Nc1ccc2c(c1)OCO2 | inactive: 1.02

SMILES | relative growth
COC(=O)C[C@H]1CC[C@H]2[C@H](COc3ccc(NS(=O)(=O)c4ccccc4Cl)cc3C(=O)N2C)O1 | inactive: 0.967
C[C@H](CO)N1C[C@H](C)[C@@H](CN(C)S(=O)(=O)c2ccccc2F)Oc2cc(-c3ccncc3)ccc2S1(=O)=O | inactive: 1.03
C[C@H]1CN([C@@H](C)CO)C(=O)c2cccc(NC(=O)Nc3ccccc3)c2O[C@@H]1CN(C)S(=O)(=O)c1cn(C)cn1 | inactive: 0.977
C[C@@H]1CCCCO[C@H](CN(C)C(=O)Cc2ccccc2)[C@@H](C)CN([C@H](C)CO)C(=O)c2cc(NS(=O)(=O)c3ccc(F)cc3)ccc2O1 | inactive: 1.01
CN(CC(=O)NC1CCCCC1)S(C)(=O)=O | inactive: 0.998
CN1C(=O)c2cc(NC(=O)c3cnccn3)ccc2OC[C@@H]2O[C@@H](CC(=O)NCC3CCCCC3)CC[C@H]21 | inactive: 1
C[C@@H]1CN([C@@H](C)CO)C(=O)c2cc(NS(=O)(=O)c3cn(C)cn3)ccc2O[C@@H]1CN(C)S(=O)(=O)c1ccc(Cl)cc1 | inactive: 0.982
CCCN(C)C[C@H]1OCCCC[C@@H](C)Oc2ccc(NC(=O)Nc3ccccc3)cc2C(=O)N([C@@H](C)CO)C[C@H]1C | inactive: 0.964
C[C@H]1c2cccc(O)c2C(=O)C2=C(O)[C@]3(O)C(=O)[C@@H](C(N)=O)C(=O)[C@@H](N(C)C)[C@@H]3[C@@H](O)[C@@H]21 | active: 0.0376
COc1cc(C2c3cc4c(cc3C(OC3OC5COC(C)OC5C(O)C3O)C3COC(=O)C23)OCO4)cc(OC)c1O (stereo not drawn) | inactive: 1.02
CO[C@@H]1CN(C)C(=O)c2ccc(NC(=O)Nc3ccccc3F)cc2OC[C@@H](C)N(Cc2ccccc2F)C[C@H]1C | inactive: 1.01
COc1cnc(NS(=O)(=O)c2ccc(N)cc2)nc1 | inactive: 1.14
OC[C@H]1COCc2cnnn21 | inactive: 1.01
C[C@H]1CN([C@@H](C)CO)S(=O)(=O)c2ccc(C#CC3CCCC3)cc2O[C@H]1CN(C)C(=O)Cc1ccncc1 | inactive: 0.981
COc1ccc(NC(=O)Nc2ccc3c(c2)C(=O)N([C@H](C)CO)C[C@@H](C)[C@@H](CN(C)Cc2ccc4c(c2)OCO4)OCCCC[C@H](C)O3)cc1 | inactive: 0.934
C[C@@H]1CN([C@@H](C)CO)C(=O)Cc2cc(NC(=O)Nc3cccc4ccccc34)ccc2O[C@H]1CN(C)S(=O)(=O)c1ccc(Cl)cc1 | inactive: 1.02
C[C@H]1CN([C@@H](C)CO)C(=O)c2cc(C#CC3(O)CCCC3)cnc2O[C@@H]1CN(C)S(=O)(=O)c1ccc(F)cc1 | inactive: 1.02
COc1ccc(NC(=O)N(C)C[C@@H]2OCCCC[C@H](C)Oc3ccc(NC(=O)Cc4ccccc4)cc3C(=O)N([C@@H](C)CO)C[C@@H]2C)cc1 | inactive: 0.983
COc1ccc(NC(=O)Nc2ccc3c(c2)CC(=O)N([C@H](C)CO)C[C@@H](C)[C@H](CN(C)S(=O)(=O)c2cn(C)cn2)O3)cc1 | inactive: 0.987
COc1ccc(S(=O)(=O)N(C)C[C@@H]2OCCCC[C@@H](C)Oc3ccc(NC(=O)NC4CCCCC4)cc3C(=O)N([C@@H](C)CO)C[C@H]2C)cc1 | inactive: 0.999

SMILES | relative growth
O=C(O)CCC(=O)Nc1ccc(S(=O)(=O)Nc2nccs2)cc1 | inactive: 1.1
Cc1noc(C)c1NC(=O)N(C)C[C@H]1Oc2ccc(NS(=O)(=O)c3c(C)noc3C)cc2C(=O)N([C@@H](C)CO)C[C@@H]1C | inactive: 1.01
C[C@H]1CCCCO[C@@H](CN(C)C(=O)Nc2ccc(C(F)(F)F)cc2)[C@@H](C)CN([C@@H](C)CO)C(=O)c2cc(N(C)C)ccc2O1 | inactive: 1.02
CCS(=O)(=O)N1Cc2cc(C(=O)NCCOC)nc(-c3cccc(-c4ccncc4)c3)c2[C@@H]1CCO | inactive: 0.98
Cc1noc(C)c1S(=O)(=O)N(C)C[C@@H]1Oc2ccc(NC(=O)CCC(F)(F)F)cc2CC(=O)N([C@@H](C)CO)C[C@@H]1C | inactive: 1.01
C[C@@H]1CN([C@H](C)CO)C(=O)c2cc(C#CC3(O)CCCC3)cnc2O[C@@H]1CN(C)C(=O)Cc1ccncc1 | inactive: 0.987
CCCC[C@H](NC(C)=O)C(=O)N[C@@H](CCC(N)=O)C(=O)N[C@@H](Cc1c[nH]cn1)C(=O)N[C@H](Cc1ccccc1)C(=O)N[C@@H](CCCNC(=N)N)C(=O)N[C@H](Cc1c[nH]c2ccccc12)C(=O)NCC(N)=O | inactive: 1.03
Cc1ccc(S(=O)(=O)Nc2ccc3c(c2)C(=O)N([C@H](C)CO)C[C@H](C)[C@@H](CN(C)Cc2ccc(C(=O)O)cc2)OCCCC[C@@H](C)O3)cc1 | inactive: 0.993
Cc1noc(C)c1NC(=O)N(C)C[C@H]1Oc2ccc(NC(=O)Cn3cnnn3)cc2C(=O)N([C@H](C)CO)C[C@H]1C | inactive: 0.967
COc1ccc(CN(C)C[C@@H]2Oc3c(NC(=O)CCCCCC(=O)Nc4ccccc4N)cccc3C(=O)N([C@@H](C)CO)C[C@H]2C)cc1 | inactive: 0.993
C[C@@H]1CN([C@@H](C)CO)S(=O)(=O)c2ccc(C#CCN(C)C)cc2O[C@@H]1CN(C)S(=O)(=O)c1cccc(F)c1 | inactive: 1.03
Cc1cc(C2CCCCC2)n(O)c(=O)c1.NCCO | active: 0.0534
C[C@@H]1CN([C@@H](C)CO)C(=O)Cc2cc(NC(=O)Nc3ccc(C(F)(F)F)cc3)ccc2O[C@H]1CN(C)Cc1ccc(Oc2ccccc2)cc1 | inactive: 1.02
C[C@@H]1CN([C@@H](C)CO)C(=O)c2cccc(NC(=O)Nc3ccc4c(c3)OCO4)c2O[C@H]1CN(C)C(=O)Nc1cccc2ccccc12 | inactive: 1
COc1ccc(NC(=O)Nc2ccc3c(c2)C(=O)N([C@H](C)CO)C[C@H](C)[C@H](CN(C)C(=O)Nc2ccccc2)OCCCC[C@@H](C)O3)cc1 | inactive: 1.02
C[C@@H]1CN([C@H](C)CO)C(=O)c2cc(NC(=O)CCC(F)(F)F)ccc2O[C@@H](C)CCCCO[C@@H]1CN(C)Cc1ccc2c(c1)OCO2 | inactive: 1.01
CC(=O)N1CCN(C(=O)c2ccc(NCc3ccccc3Cl)c(S(=O)(=O)Nc3cccc(C(F)(F)F)c3)c2)CC1 | inactive: 0.981
O=C(O)c1ccnc2nc[nH]c12 | inactive: 0.997

Source: the supplement of paper PMC9446081
